Consider 56 molecules from PubChem BioAssay AID463173 (ICCB-Longwood Screening Facility, Harvard Medical School, 2010).

Molecules are shown by their SMILES. The whole screen tested about 52,000 compounds, of which about 4,300 (8.3%) were called active. Rule as the data show it: active = survival mostly below about 52% (no sharp cut-off); inactive = mostly above about 56%. This is one part of the list.

This assay deals with DeltatarO mutant. In words: growth inhibition of S. aureus wild type versus tarO mutant, primary screen, teichoic acid synthesis inhibitors, RN4220, OD600 (AID 463173). The following applies: OD600, 18 h, stronger effect = lower value, screened at 18.75 µg/mL (by protocol).
For the molecule `COc1ccc(NCc2nc3ccccc3n2CCOc2ccc(C)cc2)cc1`, the survival is active: 17%.
The same measure for `Cc1ccc(Cl)cc1N1CCN(C(=O)c2cn(C)c3ccc(S(=O)(=O)N4CCC(C)CC4)cc3c2=O)CC1`: inactive: 95%; for `Cc1cccc(Cn2c(=O)n(CCc3ccccc3)c(=O)c3sc4ccccc4c32)c1`: inactive: 77%; for `Cc1ccc(CCNC(=O)CCSCc2ccccc2F)cc1`: active: -4%.
As for `O=C(CCOc1ccccc1)N(Cc1cccnc1)c1nc2c(Cl)cccc2s1`, the figure is inactive: 80%; as for `CCOC(=O)c1cc(-c2ccccc2)nn1Cc1ccccc1`, active: -12%; as for `Cc1ccc(C2c3[nH]c4ccccc4c3CCN2C(=O)c2ccc(N(C)C)cc2)cc1` (stereo unspecified), inactive: 69%.
With `Cc1ccc(C)c(N2CCN(C(=O)C3CCN(Cc4nc(-c5cccc(Cl)c5)oc4C)CC3)CC2)c1`, the survival was inactive: 47%.
As for `NC(=O)C1(N2CCCCC2)CCN(C(=O)Nc2ccc(Cl)c(Cl)c2)CC1`, the figure is inactive: 109%; as for `O=C1C=C(c2ccccc2)OC(c2ccccc2)O1` (stereo unspecified), inactive: 70%.
For the molecule `COc1ccc(N2CCN(C(=O)c3cc4c(=O)n(Cc5cccs5)ccc4nc3C)CC2)cc1`, the survival is inactive: 92%.
Consider `Cc1cc(Cl)ccc1NC(=O)C1CCN(S(=O)(=O)c2ccc3[nH]c(=O)ccc3c2)CC1`, for which the survival is inactive: 92%.
The same measure for `COc1cccc(NC(=O)c2sc3nc(C)c(C(=O)Nc4ccc(C)cc4C)c(-c4ccc(Br)cc4)c3c2N)c1`: inactive: 116%; for `COc1ccc(CNC(=O)c2cc3sccc3n2C)cc1`: inactive: 50%; for `Cc1ccc(S(=O)(=O)N(Cc2nc(-c3ccc(Cl)cc3)no2)C2CCCCC2)cc1`: inactive: 69%.
The same measure for `O=C(Cn1nnc2ccccc21)Nc1cc(C(F)(F)F)ccc1Cl`: inactive: 88%; for `Cc1ccc2oc(C(=O)Nc3c(C(=O)c4ccc(C)c(F)c4)oc4ccccc34)cc(=O)c2c1`: inactive: 58%.
The same measure for `Cc1cc(NC2C3CC4CC(C3)CC2C4)n2ncnc2n1` (stereo unspecified): inactive: 105%; for `O=S(=O)(Nc1c(F)cccc1F)c1ccc2c(c1)OCCO2`: inactive: 63%.
As to `CCOC(=O)N1CCc2c(sc3c2c(=O)n(Cc2ccccc2)c(=O)n3CC(=O)Nc2ccccc2F)C1`, the survival is inactive: 72%.
The same measure for `Cc1ccccc1-c1nnn(C/C(N)=N/O)n1`: inactive: 98%; for `COc1ccc(C)cc1NC(=O)C(CCSC)NS(=O)(=O)c1ccc2c(c1)oc(=O)n2C` (stereo unspecified): inactive: 95%.
As for `CCn1nnc2cc(C(=O)Nc3cccc(C(F)(F)F)c3)ccc21`, the figure is inactive: 96%.
The same measure for `CC(C)NC(=O)c1cnc2sc(N3CCCCCC3)nn2c1=O`: inactive: 94%.
Turning to `COc1ccc(CN(C(=O)Nc2ccccc2)c2ccccn2)cc1OC`, the survival was inactive: 69%.
The same measure for `CCOC(=O)c1c(C)[nH]c(CCC(=O)Nc2ccc(N(CC)CC)cc2C)c1C`: inactive: 99%; for `COc1cccc(/C=C(\C#N)c2nc3ccc(C)cc3[nH]2)c1`: inactive: 46%; for `Cn1c(=O)c2c(SCC(=O)NCC3CCCO3)nc(-c3ccccc3F)nc2n(C)c1=O` (stereo unspecified): inactive: 95%.
As for `CCOC(=O)c1ccc(NS(=O)(=O)c2cc3c(cc2C)n(C)c(=O)c(=O)n3C)cc1`, the figure is inactive: 99%.
The same measure for `O=C(Cn1nc(C(F)F)cc1C1CC1)N1CCCC1`: inactive: 89%; for `CCOc1ccc(NC(=O)CSc2oc(-c3cccs3)nc2S(=O)(=O)c2ccc(Cl)cc2)cc1`: inactive: 63%.
On to `O=C(Cn1c(=O)n(-c2ccccc2)c(=O)c2ccc(C(=O)NCc3ccc4c(c3)OCO4)cc21)Nc1ccc(Br)cc1F`, for which the survival is inactive: 117%.
As for `COc1ccc(CNc2nc(-c3ccc(OC)c(OC)c3)cc(C(F)(F)F)n2)cc1`, the figure is active: 11%; as for `CCCCSCCCNC(=O)CN1C(=O)COc2ccc(S(=O)(=O)N3CCCC3)cc21`, inactive: 66%.
As for `CN1CC=C2C(C#N)=C(N)C(C#N)(C#N)C(Cc3ccccc3)C2C1` (stereo unspecified), the figure is inactive: 75%; as for `COc1ccc(-c2noc(-c3ccc(N4CCOCC4)c([N+](=O)[O-])c3)n2)cc1OC`, inactive: 52%.
As for `CCOCCCNC(=O)N1CCN(S(=O)(=O)c2ccc3c(ccn3C)c2)CC1`, the figure is inactive: 112%; as for `O=C(NCc1cccnc1)c1ccc(S(=O)(=O)N2CCCCC2)cc1`, inactive: 97%.
For `COc1ccccc1N1CCN(CCC(=O)Nc2cccc(F)c2)CC1`, the survival is inactive: 48%.
The same measure for `O=C(CSC1=Nc2ccccc2C2=NC(CCC(=O)NC3CCCCC3)C(=O)N12)Nc1cccc(Cl)c1` (stereo unspecified): inactive: 112%; for `CCOC(=O)C1CCC(CN(Cc2c(Cl)cccc2Cl)S(=O)(=O)c2ccc(F)c(C)c2)CC1` (stereo unspecified): inactive: 89%.
In the case of `Cc1cc(NC(=O)c2ccc(Cl)c(Cl)c2)ccc1-c1cc2ccccc2oc1=O`, the survival was inactive: 66%.
`COc1ccc(NC(=O)Cn2c(=O)n(-c3ccccc3)c(=O)c3ccc(C(=O)NCc4ccc5c(c4)OCO5)cc32)cc1`: the survival is inactive: 128%.
The same measure for `CCCSc1ncc(Cl)c(C(=O)Nc2ccc(CC)cc2)n1`: active: 42%; for `Oc1cccc(Nc2nc(-c3ccccc3)nc3ccccc23)c1`: active: 10%.
The same measure for `CC1(C)C(=O)N(CC(=O)Nc2ccc(OC(F)(F)F)cc2)c2ccccc21`: inactive: 85%; for `Cc1ccc(CNC(=O)CSc2nc3ccsc3c(=O)n2-c2ccc(C(=O)O)cc2)cc1`: inactive: 95%; for `CCN(CCCNC(=O)c1cc2cc3cc(OC)ccc3nc2s1)c1ccccc1`: active: 53%.
The same measure for `COc1ccccc1CNC(=O)c1nn(-c2ccc(C)cc2)c(=O)c2c1c1ccccc1n2C`: inactive: 112%; for `COc1ccc(CCNC(=O)CSc2nc3ccccc3nc2Cc2ccc(C)cc2)cc1OC`: active: 35%.
For the molecule `Cc1cccc(CSc2ncc(Cl)c(C(=O)Nc3sc4c(c3C#N)CCCC4)n2)c1`, the survival was inactive: 114%.
As for `CCN(CC)c1nc2c(S(=O)(=O)c3ccc(C)cc3)nnn2c2ccsc12`, the figure is inactive: 75%; as for `COc1ccccc1NC(=O)CSc1oc(-c2cccs2)nc1S(=O)(=O)c1ccc(C)cc1`, inactive: 61%; as for `O=C(NCc1ccccc1)c1cccc(NC(=O)N2CCSc3ncccc32)c1`, inactive: 83%.
As for `COc1cc(C2NC(=O)N(C)C3=C2C(=O)N(c2ccccc2)C3)ccc1O` (stereo unspecified), the figure is inactive: 77%.
The same measure for `CCC(C)NC(=O)c1sc2nc(C)c(C(=O)Nc3ccc(C)cc3C)c(-c3ccc(Br)cc3)c2c1N` (stereo unspecified): inactive: 78%.
